# Laboratory results taken from PubChem BioAssay AID1240 (Sanford-Burnham Center for Chemical Genomics, 2008).
# Screen size: about 50,000 compounds; about 800 (1.6%) showed an effect of 50% or more. The list shows a part of the results.
# Target: Bcl-2-like protein 10 (Homo sapiens) (UniProt Q9HD36)
# Test: TR3 peptide-Bcl-B binding displacers, biochemical primary FP assay, phenotype converters (AID 1240);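 also: 0% = Bcl-B with tracer peptide and DMSO and 100% = tracer peptide lacking Bcl-B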
# Conditions: GST-Bcl-B / FITC-TR3 peptide fluorescence polarization; stronger effect = higher value; compound at 3.75 mg/L
# Sequence of UniProt Q9HD36 (Q9HD36 whole entry, looked up): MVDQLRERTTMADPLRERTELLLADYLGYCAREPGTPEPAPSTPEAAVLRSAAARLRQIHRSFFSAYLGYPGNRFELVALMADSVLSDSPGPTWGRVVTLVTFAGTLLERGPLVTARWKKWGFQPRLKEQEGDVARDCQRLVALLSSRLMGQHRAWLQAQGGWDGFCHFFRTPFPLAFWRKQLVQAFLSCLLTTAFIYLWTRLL
row,SMILES,displacement
1,CCOc1c(C)cc2[nH]c(=S)[nH]c2c1C,10.3%
2,COc1ccccc1C(=O)Nc1ccc2c(c1)OCCO2,-3.4%
3,CCOc1ccc(C(=O)Nc2ccc3nn(-c4ccc(OCC)cc4)nc3c2)cc1,-1.5%
4,COC(=O)CN(c1ccc(C)cc1C)S(=O)(=O)c1ccccc1,17.6%
5,CC(=O)OCCCn1c(=O)c2cc3c(=O)n(CCCOC(C)=O)c(=O)c3cc2c1=O,10%
6,O=C(N/N=C/c1cc(O)c(Br)cc1Br)c1cccc(F)c1,-3.4%
7,Cc1cc(C)c(S(=O)(=O)N2CCN(c3ccccc3)CC2)c(C)c1,-4.5%
8,O=C(C#Cc1cccc([N+](=O)[O-])c1)c1ccccc1,2.8%
9,CC1(C)Cc2c(sc3[nH]c(=S)n(Cc4ccccc4)c(=O)c23)CO1,-9.2%
10,Cn1c(O)c(C(N)=NC(=O)c2ccccc2)c(=O)n(C)c1=O,-8%
11,CC1=C(C(=O)OC(C)C)C(c2ccccc2Cl)CC(=O)N1 (stereo unspecified),-9.9%
12,COc1ccc(NS(=O)(=O)c2ccc([N+](=O)[O-])cc2)cc1Cl,-5.8%
13,C/C(=C\C(=O)c1ccc(Cl)cc1)Nc1cc(C)ccc1Cl,6.2%
14,COc1ccccc1NC(=O)C1=C(C)Nc2sc(C#N)c(N)c2C1c1ccco1 (stereo unspecified),9.1%
15,O=C(Nc1ccccc1)C1C2/C=C\CCCCC21 (stereo unspecified),-10.2%
16,Cc1ccc(OCC(=O)Nc2ncc(S(=O)(=O)c3ccc([N+](=O)[O-])cc3)s2)c(C(C)(C)C)c1,-7.2%
17,O=C(CCCOc1ccccc1)Nc1cc(C(F)(F)F)ccc1Cl,-1.9%
18,C=C(C)COc1ccc2c3c(c(=O)oc2c1C)CCCC3,-5.8%
19,Brc1ccc2ncnc(NCCCN3CCOCC3)c2c1,-0.7%
20,O=C(NCCCN1CCOCC1)C(=O)Nc1ccc(I)cc1,11.9%
21,CC(=O)c1ccc(NC(=O)c2c(-c3ccccc3)noc2C)cc1,6.8%
22,O=C(NNC(=O)c1ccc(Cl)c(Cl)c1)c1cccc(Cl)c1,-12.7%

row,SMILES,displacement
1,COc1cccc(NC(=O)c2ccc(CN(c3ccccc3)S(C)(=O)=O)cc2)c1,-6.9%
2,COc1cc(/C=c2/sc3nc4ccccc4n3c2=O)cc(Br)c1OC,14.3%
3,Cc1ccccc1Nc1nc2nonc2nc1N1CCOCC1,13.3%
4,COc1ccc(OC)c(C2NC(=O)NC(C)=C2C(=O)OCc2ccc3c(c2)OCO3)c1 (stereo unspecified),-0.1%
5,COc1cc(/C=C2\C(=O)NC(=S)N(c3cccc(Br)c3)C2=O)c([N+](=O)[O-])cc1OC,-3.8%
6,CN(C(=O)CN1C(=O)C(C)(C)Nc2ccccc21)c1ccccc1,-3.2%
7,CC(=O)c1cccc(NC(=O)COc2ccc(Cl)cc2C)c1,11.8%
8,CCOc1ccc(Nc2nc(-c3sc(NC(=O)c4ccccc4)nc3C)cs2)cc1,14.6%
9,CCOC(=O)c1ccc(N/C=C/C(=O)c2cccs2)cc1,14.1%
10,Nc1nc(Oc2ccc(F)cc2)c(Br)c(=O)[nH]1,-7.1%
11,COc1ccc(NC(=O)C2=C(C)NC(=S)NC2c2ccccc2F)cc1 (stereo unspecified),-0.6%
12,CC1CCN(C(=O)c2cccc(Cl)c2)CC1,4.5%
13,O=C1CC(c2ccccc2)CC2=C1C(c1ccc(-c3ccccc3)cc1)Nc1ccccc1N2 (stereo unspecified),-6%
14,CC(=O)CC(=O)Nc1ccn(-c2ccccc2)n1,8.3%
15,CCC(=O)c1ccc(N2CCN(C(=O)c3ccccc3)CC2)c(F)c1,4.2%
16,COc1ccc(O)c(C(=O)CC(=O)c2ccc(C)cc2)c1,-14%
17,O=c1/c(=C/c2cc(Cl)ccc2OCc2ccccc2F)sc2nc3ccccc3n12,4.2%
18,COc1ccc(OC)c(/C=C2/C=C(c3cccc4ccccc34)OC2=O)c1,-38%
19,CCC(=O)Nc1cccc(NC(=O)c2ccc(Cl)c(Cl)c2)c1,15%
20,CN(C)c1ccc(NC(=O)C(=O)NCCOc2ccccc2)cc1,3.6%
21,COc1ccc(N2C(=O)NC(=O)/C(=C/c3ccc(O)c([N+](=O)[O-])c3)C2=O)cc1,-5.7%
22,Cc1cc(C(=O)N2CCN(Cc3ccccc3)CC2)ccc1[N+](=O)[O-],12.7%

row,SMILES,displacement
1,O=C1NC(=O)N(c2ccccc2)C(=O)/C1=C/c1cccc(Oc2ccccc2)c1,-2.6%
2,COC(=O)c1cc(NC(=O)COc2ccc(Cl)cc2C)cc(C(=O)OC)c1,-3.8%
3,COc1cccc(CN2CCN(Cc3ccccc3[N+](=O)[O-])CC2)c1OC,-4.9%
4,Cc1cc(O)ccc1N=Cc1c(C)[nH]n(-c2ccccc2)c1=O,5.9%
5,O=C(NC1CCCCC1)N1CCN(Cc2ccccc2)CC1,0.5%
6,CC(=O)c1cc(F)c(N2CCOCC2)cc1C,5.7%
7,O=C(Nc1nc2ccccc2n1CCOc1ccccc1)c1ccc(Cl)cc1,-3.2%
8,O=C(NCC1CCCO1)c1cc2nc(-c3ccc([N+](=O)[O-])cc3)cc(C(F)(F)F)n2n1 (stereo unspecified),3.7%
9,CCN1C(=O)N(C)C2C1N(CC)C(=O)N2C (stereo unspecified),-7.1%
10,O=C(CSc1nc2ccc([N+](=O)[O-])cc2s1)c1ccc(F)cc1,-1.7%
11,COc1ccc(C(=O)COc2cc3c(C(=O)OC(C)C)c(C)oc3cc2Br)cc1,8.8%
12,CC(=O)Nc1ccc(NS(=O)(=O)c2c(C)cc(C)cc2C)cc1,1.2%
13,CCOc1ccc(C(=O)Nc2cc(Cl)cc(Cl)c2)cc1Cl,-1.1%
14,CCOC(=O)C1=C(C)NC(=O)NC1c1ccc(SC)cc1 (stereo unspecified),-9.2%
15,Cc1ccc(S(=O)(=O)C(CC(=O)c2ccc(O)cc2)c2ccccc2)cc1 (stereo unspecified),7.9%
16,CCC1(C)Cc2c(sc3[nH]c(=S)n(-c4ccccc4)c(=O)c23)CO1 (stereo unspecified),14.2%
17,Cc1ccc(S(=O)(=O)Oc2c(C=O)[nH]c3ccccc23)cc1,-2.2%
18,COc1ccc(CN2CCN(C3CCCCC3)CC2)cc1,-16.7%
19,Cc1ccc(N2C(=O)CN=C2Nc2nc(C)cc(C)n2)c(C)c1,-6%
20,COc1ccc(CNC23CN4CN(CN(C4)C2)C3)cc1,1.8%
21,COc1ccc(NC(=O)c2ccc(N(C)S(=O)(=O)c3ccccc3)cc2)cc1OC,16.7%
22,COc1cccc(/C=C2\SC(=S)N(c3cccc(C)c3C)C2=O)c1,-4.5%

row,SMILES,displacement
1,CC(C)(C)c1cnnn1-c1ccc(/C=C/C(=O)c2ccccc2)cc1,2.9%
2,O=C(/C=C/c1ccccc1)C1=C(O)C(=O)N(c2ccccn2)C1c1ccccc1F (stereo unspecified),93.5%
3,COC(=O)C1=C(C)N(C)C(C)=C(C(=O)OC)C1c1cccc(OC)c1,-8.5%
4,CC(C)(C)C1(O)CC(C(F)(F)F)=NN1C(=O)CCc1ccccc1 (stereo unspecified),-19.9%
5,C(=N\c1nc2ccccc2s1)/c1ccc(/C=N/c2nc3ccccc3s2)cc1,0.5%
6,O=c1c(Oc2ccccc2Br)c(C(F)(F)F)oc2c(CN3CCCC3)c(O)ccc12,0%
7,Cc1cc(Br)ccc1NC(=O)Cn1cnc2c1c(=O)n(C)c(=O)n2C,-8.7%
8,COc1cccc(/C=C2/SC(=S)N(CCC(=O)Nc3c(C)n(C)n(-c4ccccc4)c3=O)C2=O)c1,7.7%
9,CC(=O)c1c(C)oc2ccc(NS(=O)(=O)c3ccccc3C)cc12,8.5%
10,Cc1cc(Br)cc2c(N=Nc3cccc4cccnc34)c(O)n(C)c12,4.9%
11,CC(=O)NC(NC(=S)Nc1cccc(Cl)c1)C(Cl)(Cl)Cl (stereo unspecified),-1%
12,COc1ccc(Br)cc1C(=O)Nc1cccc(-c2nc3cc(C)ccc3o2)c1C,20.2%
13,O=C(Cn1nnc(-c2ccc(F)cc2)n1)N/N=C/c1ccc(-c2ccc3c(c2)COC3=O)o1,-18.8%
14,COc1ccc(N(CC(O)CN2C(=O)NC(C)(C)C2=O)S(=O)(=O)c2ccc(C)cc2)cc1 (stereo unspecified),9.1%
15,CC(C)C(=O)Nc1ccc2oc(-c3cc(I)ccc3Cl)nc2c1,14.2%
16,CCc1ccc(-c2nc(-c3cc(OC)c(OC)c(OC)c3)no2)cc1,-10.2%
17,CC1(C)CC(=O)C2=C(C1)c1c(ccc3ccccc13)NC2c1cccs1 (stereo unspecified),7.2%
18,O=C(/C=C\c1ccccc1)Nc1ccc(Br)cn1,2.3%
19,CCCCNc1cc(=O)n(C)c(=O)n1C,6.5%
20,Cc1nc2sc3c(c2c(=O)n1/N=C/c1cccnc1)CCCC3,-8.8%
21,COC(=O)c1ccc(-n2c(C)cc(/C=C3\NC(=S)NC3=O)c2C)cc1,8.2%
22,COc1ccc(Br)cc1C(=O)Nc1ccc(-c2nc3ccccc3o2)cc1,134%

row,SMILES,displacement
1,O=C1Nc2c(Br)cc(Br)c3cccc1c23,-3.5%
2,COc1ccc(C2Nc3ccccc3C(=O)N2Cc2ccccc2)cc1Cn1nc(C)c(Br)c1C (stereo unspecified),15.4%
3,CCC(CC)=N/N=C1/NC(=O)C(CC(=O)Nc2ccc(C(=O)O)cc2)S1 (stereo unspecified),-43%
4,CC(NC(=O)c1ccc(S(=O)(=O)N2CCCCC2)cc1)C12CC3CC(CC(C3)C1)C2 (stereo unspecified),-11.4%
5,O=C1OC(c2ccccc2)=N/C1=C\c1cccc(OC(F)(F)C(F)F)c1,9.6%
6,CCn1c(=N)n(CC(=O)c2cc(C(C)(C)C)c(O)c(C(C)(C)C)c2)c2ccccc21,3.8%
7,COc1ccccc1NC(=O)/C(=C/c1ccccc1)c1ccccc1,12.8%
8,O=C(Cn1cc(/C=C2\SC(=O)NC2=O)c2ccccc21)Nc1ccccc1,-4.9%
9,O=C(NCCO)/C(=C/c1cccc([N+](=O)[O-])c1)NC(=O)c1cccs1,0%
10,CCC1=NN2C(=N)/C(=C/c3ccc(-c4ccc(C)c(Cl)c4)o3)C(=O)N=C2S1,3.9%
11,Cc1ccccc1N1CCN(C(=S)c2ccc(N(C)C)cc2)CC1,12.2%
12,Cc1cc(C)c(NC(=O)C(C)N2C(=O)c3ccccc3C2=O)c(C)c1 (stereo unspecified),10.5%
13,CCOC(=O)C1(C)C=C(Nc2ccc(O)c(C(=O)O)c2)C(=O)N1c1ccccc1 (stereo unspecified),1.3%
14,COc1cc(/C=C2/C(=O)NN(c3ccc(C)cc3)C2=O)c([N+](=O)[O-])cc1OC,4.5%
15,O=C(CCCN1C(=O)/C(=C\c2ccc(F)cc2)SC1=S)Nc1ccc(O)cc1,1.8%
16,Cc1ccc(OCC(=O)N2CCN(c3ccccn3)CC2)c(Br)c1,0.4%
17,CCOC(=O)c1c(-c2ccccc2)oc2ccc(O)c(CN3CCCC3)c12,9.4%
18,O=[N+]([O-])c1ccc(-c2noc(COc3cccc4ccccc34)n2)cc1,-1.7%
